Screen size: about 310,000 compounds; about 18,000 (5.8%) were called active. Inconclusive results, whose numbers are uncertain, are shown with a selection of clear calls. Calls follow the shape of the dose curve; as a rule, active = well fitted inhibition curve with a large enough effect; inconclusive = small, poorly fitted or top-dose-only effect, or another doubt; inactive = no such curve, though single readings can be large or run the other way. No potency is given beside an inconclusive call; the fits are too rough.
Experiment: Primary qHTS for delayed death inhibitors of the malarial parasite plastid, 48 hour incubation
Conditions: P. falciparum luciferase growth in erythrocytes; series mostly up to 28.7 µM
Procedure, shortened: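 Compounds are pin-transferred into medium, infected erythrocytes (2% hematocrit, 0.1% parasitemia final) are added, and plates sit one parasite generation at 37 C in 5% CO2. Detection reagent is then added and luminescence measured.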
Potency is read from the fitted curve at half-maximal effect; tags tell the direction and shape of the fitted curve.

Compound | Potency
Cc1nn(Cc2ccc(Cl)cc2)c(=O)n1N(C)c1ncc(C(F)(F)F)cc1Cl | inconclusive [inhibitor, partial curve]
COc1ccc(NC(=S)N2CCN(C(=O)c3ccco3)CC2)c(OC)c1 | inactive
COc1ccc2c(c1)nc(SCC(=O)c1ccc(Br)s1)n2C | inconclusive [inhibitor, partial curve, poor fit]
Cc1cc(C(=O)C(C)OC(=O)c2ccc(NC(=O)CC#N)cc2)c(C)n1-c1ccc(OC(F)F)cc1 (stereo not drawn) | active: 5.86 µM
CC(C)(C)NC(=O)CN(C(=O)CCN1CCCc2ccccc21)C(C)(C)C | inconclusive [inhibitor, single point]
O=C(CN(C(=O)CSc1nnc(COc2ccccc2)o1)c1ccc(F)cc1)NC1CCCCC1 | active: 11.7 µM
COc1ccc2oc(=O)c(-c3csc(Nc4ccc(O)cc4)n3)cc2c1 | inconclusive [inhibitor, single point]
S=C(NCCN1CCOCC1)N1CCN(c2cccc(Cl)c2)CC1 | inconclusive [inhibitor, partial curve, poor fit]
Cc1nn(CC(=O)N2CCN(c3ccccn3)CC2)c(=O)c2cc3sccc3n12 | inactive
O=C(c1nn2c(C(F)(F)F)cc(-c3ccco3)nc2c1Br)N1CCCc2ccccc21 | inconclusive [inhibitor, single point]
CC[n+]1c(/C=C/c2ccc(OC)c(OC)c2)ccc2ccccc21 | active: 1.04 µM
CC[n+]1c(C)cc(C)n1-c1ccccc1 | inconclusive [inhibitor, partial curve, poor fit]
C=C1SC(=Nc2c(C)cccc2Cl)N(C(=O)c2sc3ccccc3c2Cl)C12CCCCC2 | inconclusive [inhibitor, full curve, poor fit]
COc1ccc(CCNS(=O)(=O)c2cccc(S(=O)(=O)N3CCCC3)c2)cc1OC | inconclusive [inhibitor, single point]
O=Cc1ccccc1Oc1ccccc1 | inactive
CCC(C)C(NC(=O)CCC(=O)OCC(=O)[C@@]1(O)CCC2[C@@H]3CCC4=CC(=O)C=C[C@]4(C)C3[C@@H](O)C[C@@]21C)C(=O)O (stereo partly drawn) | active: 3.7 µM
Cc1ccc(NCc2nnc(SCC(=O)O)n2-c2ccc(C)cc2)cc1 | inconclusive [inhibitor, single point]
O=C(CN1C(=O)c2cccc3cccc1c23)Nc1cccnc1 | inactive
CCN(C(=O)COC(=O)c1ccc(O)cc1O)c1c(N)n(Cc2ccccc2)c(=O)[nH]c1=O | inconclusive [inhibitor, single point]
CCc1ccc2nc3nc(C)cc(C)c3c(N)c2c1 | inconclusive [inhibitor, single point]
Cc1ccc(S(=O)(=O)c2c(N)n(-c3ccccc3)c3nc4ccccc4nc23)cc1 | inconclusive [inhibitor, single point]
CC(C)(C)CN1C(=O)C(=O)NC[C@H]1Cc1cccc2ccccc12 | inconclusive [inhibitor, partial curve]
Cc1ccccc1-[n+]1c(-c2ccccc2)cc(-c2ccccc2)cc1-c1ccccc1 | active: 0.329 µM

Compound | Potency
CCCCNC(=O)C(c1ccc(OCC(=O)OC)c(C(=O)OC)c1)N(CCOC)C(=O)CCCCCN1C(=O)NC(c2ccc(-c3ccccc3)cc2)C(C(=O)OCc2ccccc2)=C1C (stereo not drawn) | active: 1.17 µM
COc1ccc(NC(=O)CSc2nnc(-c3cccs3)n2C)cc1OC | inconclusive [inhibitor, partial curve, poor fit]
Cc1onc(-c2c(F)cccc2Cl)c1C(=O)ONC(=O)c1ccccc1 | inactive
Cc1ccc(C(=O)Nc2nc(=O)n(C)s2)cc1 | inactive
Nc1nc(=S)c2ncn([C@@H]3O[C@H](CO)[C@@H](O)[C@H]3O)c2[nH]1 | active: 10.4 µM
O=C(NNC(=O)c1cnccn1)c1cccc([N+](=O)[O-])c1 | inconclusive [inhibitor, single point]
Cc1cc(=O)n(C)c2ccccc12 | inactive
CN(C)C1(CNC(=O)CC(NC(=O)c2ccccc2Cl)c2ccccc2)CCCCC1 (stereo not drawn) | inconclusive [inhibitor, partial curve, poor fit]
CCOC(=O)C(=NC(C)(C)C)NNc1cc(Cl)ccc1Cl | inconclusive [inhibitor, single point]
CCCc1nc(N)c(C#N)c(-c2ccco2)c1CC | inactive
CC(C)[C@H](NC(=O)c1ccco1)C(=O)NCc1ccccc1 | inactive
COc1cccc(C2C([N+](=O)[O-])=C(N)Oc3cc(C)oc(=O)c32)c1 (stereo not drawn) | inactive
CC(C)(C)n1nnnc1CN1CCC(NC(=O)NC2CCCCC2)CC1 | inactive
O=C(NCC(c1ccco1)N1CCCC1)c1ccc(S(=O)(=O)Nc2ccc(F)cc2)cc1 (stereo not drawn) | inconclusive [inhibitor, partial curve]
COc1ccc(N(CC(=O)NC2CCS(=O)(=O)C2)S(=O)(=O)c2ccc(Cl)c(Cl)c2)cc1 (stereo not drawn) | inactive
Cc1cc(C)cc(NC(=O)CCn2ccnc2)c1 | inactive
COc1ccc(CNC(=O)c2csc(Cc3ccccc3)n2)cc1 | inactive
Cc1ccccc1N1CC(C(=O)Nc2ccc(S(=O)(=O)N3CCCC3)cc2)CC1=O (stereo not drawn) | inconclusive [inhibitor, single point]
COCCCNCCCCOc1ccc(Br)cc1C | inactive
NC(=O)c1ccsc1NC(=O)COC(=O)COc1ccc(C=O)cc1 | inconclusive [inhibitor, single point]
CCCCC(=O)NCCNC(=O)c1cc(OCC(F)(F)F)ccc1OCC(F)(F)F | inconclusive [inhibitor, full curve]
COc1ccc(/C=C(\C#N)C(=O)OCC(=O)NC2CC2)cc1 | inconclusive [inhibitor, partial curve, poor fit]
COc1ccc(CCN(C)Cc2cccc3ccccc23)cc1OC | inconclusive [inhibitor, full curve, poor fit]

Compound | Potency
CN(C)S(=O)(=O)c1ccc(C(=O)NCc2nnc(SCC(=O)Nc3ccc(F)cc3)n2-c2ccc(F)cc2)cc1 | inconclusive [inhibitor, partial curve, poor fit]
CCNc1nc(OC)nc(Oc2ccc(C(=O)OC)cc2)n1 | inconclusive [inhibitor, single point]
CCOC(=O)c1ccc(NC(=S)Nc2ccc(C)cc2)cc1 | inactive
CC(C)c1ccc(OCC(=O)Nc2cccc(C(=O)Nc3ccccc3C(=O)O)c2)cc1 | inconclusive [inhibitor, partial curve]
Cc1ccc(S(=O)(=O)N2CCN(C(=O)COc3ccc(Br)cc3)CC2)cc1 | active: 13.1 µM
CCN(Cc1ccccc1)c1ccc(/C=N/NC(=O)c2cccc(S(=O)(=O)N3CCOCC3)c2)cc1 | inconclusive [inhibitor, partial curve, poor fit]
Cc1ccc(CNC(=O)c2ccc(N3CCC4(CC3)CC(c3cccc(Br)c3)=NO4)c([N+](=O)[O-])c2)cc1 | inconclusive [inhibitor, single point]
CCOC(=O)c1sc(NC(=O)C2CC(=O)N(c3ccccc3OC)C2)nc1C (stereo not drawn) | inconclusive [inhibitor, single point]
Cn1c(=O)c2c3c(sc2n2cnnc12)CCC3 | inconclusive [inhibitor, full curve, poor fit]
Cc1[nH]c2ccccc2c1C(=O)C(C)OC(=O)c1ccccc1NCCO (stereo not drawn) | inconclusive [inhibitor, single point]
Cc1cc(C(=O)CSc2nnc(NCc3ccccc3)s2)c(C)n1C | inconclusive [inhibitor, partial curve, poor fit]
CCCCCc1cc(=O)oc2c(C(CCN3CCCC(C)C3)c3ccc(N(C)C)cc3)c(OC)cc(OC)c12 (stereo not drawn) | inconclusive [inhibitor, partial curve, poor fit]
CN(CCNC(=O)C1CC(=O)N(c2ccc(F)c(Cl)c2)C1)Cc1ccccc1 (stereo not drawn) | inconclusive [inhibitor, partial curve, poor fit]
c1ccc2c(CSCCc3ccncc3)cccc2c1 | inconclusive [inhibitor, partial curve, poor fit]
Cc1ccsc1/C=N\NC(=O)c1cc(C(C)(C)C)[nH]n1 | inactive
COc1cc2c(cc1OC)C(c1ccccc1F)NCC2 (stereo not drawn) | inactive
CCCNC(=O)c1cc(S(=O)(=O)N2CCc3ccccc32)ccc1F | inconclusive [inhibitor, single point]
COc1ccccc1N1CCN(c2ncnc3sc(C)c(-c4ccccc4)c23)CC1 | inconclusive [inhibitor, partial curve, poor fit]
COc1ccc2nc(C)cc(N3CCN(c4ccccc4)CC3)c2c1 | active: 13.1 µM
CCOc1ccc(N/C(SCc2cccc([N+](=O)[O-])c2)=C(/C#N)C(N)=O)cc1 | inconclusive [inhibitor, single point]
COc1ccc(C2CC(=O)c3cnn(-c4nc(C)cc(C)n4)c3C2)cc1OC (stereo not drawn) | inconclusive [inhibitor, partial curve, poor fit]
CC(C)N1C(=O)S/C(=C/c2ccc(Sc3nc4ccccc4[nH]3)o2)C1=O | inconclusive [inhibitor, partial curve, poor fit]
